# Test results published in patent US11726087B2, “Methods, compositions, and kits for detection of aspergillosis” (priority 2013, dated 2023).
# T1: Asp f2 (Aspergillus fumigatus, UniProt P79017)
# T1 construct: 1: A. fumigatus culture filtrate of a 9-day culture; endogenous in cells; host or cells: Aspergillus fumigatus culture filtrate
# T1 sequence (P79017 32-310): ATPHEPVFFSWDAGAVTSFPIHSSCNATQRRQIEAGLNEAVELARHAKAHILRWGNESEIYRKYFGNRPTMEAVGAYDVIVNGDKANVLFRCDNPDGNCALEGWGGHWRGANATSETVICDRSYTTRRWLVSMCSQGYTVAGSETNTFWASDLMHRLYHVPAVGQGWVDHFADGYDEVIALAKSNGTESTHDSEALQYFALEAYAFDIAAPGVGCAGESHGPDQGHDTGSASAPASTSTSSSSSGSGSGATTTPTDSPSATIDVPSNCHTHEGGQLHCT
# What was measured:
# recombinant SMT3-Asp f2 = molecular target: T2, recombinant SMT3-Asp f2 (Aspergillus fumigatus, UniProt P79017); test: Western blot, binding to recombinant SMT3-Asp f2; design: species or system A. fumigatus
# T2 construct: 3: recombinant (r)SMT3-Asp f2; Thioredoxin (Trx) (N); His6 (internal); S-tag (internal); made in house; host or cells: Escherichia coli
# Description: (§1) Western blots were performed to compare the binding specificity of 5D7A1 and the recombinant scFvs generated in Example 8.
# Asp f2 = molecular target: T1, Asp f2; test: Bead-based protease activity assay with different capture antibodies, A. fumigatus culture filtrate; details: culture filtrate from A. fumigatus
# native Asp f2 = molecular target: T3, native Asp f2 (Aspergillus fumigatus, UniProt P79017); test: Western blot, binding to native Asp f2; design: species or system A. fumigatus
# T3 construct: beads were incubated with native or recombinant Asp f2; endogenous in cells; host or cells: Aspergillus fumigatus (preparation of the native protein not described for this assay)
# Description: as §1
molecule,measurement,setting,value
"5D7A1: novel anti-Asp f2 monoclonal antibody, VH SEQ ID NO: 1, VL SEQ ID NO: 2 (antibody, V domains shown, mAb 5D7A1 VH domain; mAb 5D7A1 VL domain) VH: LPEFEVQLEESGAELARPGASVKMSCKASGYTFTTYTMHWVKQRPGQGLEWIGYINPSSGYTNYNQKFKDKATLTANKSSSIGYMQLSSLTSEDSALYYCLRRPYRSHGGWFFDVWGAGTTVTVSSAKTTPPSVYRSSK VL: MESQTQVFVYMLLWLSGVDGDIVMTQSQKFMSTSVGDRVSVTCKASQNVETNVAWYQQKLGQSPKALIYSASFRTSGVPDRFTGSGSGTDFTLTINNVQSEDLAEYFCQQYNTYPLTFGAGTKLELKRADAAPTVSISHHPVLES",binding to recombinant SMT3-Asp f2 in Western blot,recombinant SMT3-Asp f2,weakly bound
same,Asp f2 proteolytic cleavage of 5-Fam-elastin substrate after capture on antibody beads,Asp f2; 5-Fam-elastin substrate,most robust proteolytic activity
same,Asp f2 proteolytic cleavage of FITC-collagen substrate after capture on antibody beads,Asp f2; FITC-collagen substrate,most robust proteolytic activity
same,binding to native Asp f2 in Western blot,"native Asp f2; A. fumigatus culture filtrates, different glycosylation states",bound native Asp f2
same,"Western blot signal with unglycosylated Asp f2, 5D7A1 compared with scFv","native Asp f2; unglycosylated Asp f2, band at ~40 kDa",stronger signal
